# In the supplement of paper PMC8728848:
# The other results are listed elsewhere or left out.
# B1: Epa12 (Candida glabrata) (protein)
# chain: MGSSHHHHHHSSGLVPRGSHMLEPDNSLQIFDSFLSNPSKYPLGCSPKITNPKKGLSMELYSYPYRKKGSHPCWDPAYLDPNFPRVGYKKNKLIARVDGVSGDINFNFHPKRQCTPIADYLPPNFNYNEPITTTNFTMLLYGYFKPKVTGLHTFDISADDLLFMNFGAGNAFDCCRRDSTADTFGNYVAWAIWGRRIVRNKLTVRLDKGIYYPLRLFFNNRDYYGQMRLTFKTEHGSERITDFSDYFFSVDDTSEGCPGLITYESECADVKSSTVLETDYITIQAEKE
# Legend:
# Experiment in all cases: glycan array binding signal (z-score within array); higher = stronger binding
# Conditions in all cases: glycan notation: IUPAC condensed, linker removed
# [1] = target: Gal3S(b1-3)[Fuc(a1-4)]GlcNAc
# Summary of the method: (§1)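 Glycan array binding is given as a within-array Z-score, which can be read as non-binding when negative. The arrays, 3228 of them, came from the Consortium for Functional Glycomics database and were retained only where the protein sequence was available. Z-scores were averaged across arrays of the same protein sequence at different concentrations or buffers and across linkers.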
# [2] = target: Gal3S(b1-4)Glc
# Summary of the method: as §1
# [3] = target: Gal3S(b1-4)Glc6S
# Summary of the method: as §1
# [4] = target: Gal3S(b1-4)GlcNAc
# Summary of the method: as §1
# [5] = target: Gal3S(b1-4)GlcNAc6S
# Summary of the method: as §1
# [6] = target: Gal3S(b1-4)[Fuc(a1-3)]Glc6S
# Summary of the method: as §1
# [7] = target: Gal3S(b1-4)[Fuc(a1-3)]GlcNAc
# Summary of the method: as §1
# [8] = target: Gal3S(b1-4)[Fuc(a1-3)]GlcNAc6S
# Summary of the method: as §1
# [9] = target: Gal3S4S(b1-4)GlcNAc
# Summary of the method: as §1
# [10] = target: Gal3S6S(b1-4)GlcNAc
# Summary of the method: as §1
# [11] = target: Gal3S6S(b1-4)GlcNAc6S
# Summary of the method: as §1
# [12] = target: Gal4S(b1-4)GlcNAc
# Summary of the method: as §1
# [13] = target: Gal4S6S(b1-4)GlcNAc
# Summary of the method: as §1
# [14] = target: Gal6P(b1-4)GlcNAc
# Summary of the method: as §1
# [15] = target: Gal6S(b1-3)GlcNAc
# Summary of the method: as §1
# [16] = target: Gal6S(b1-3)GlcNAc6S
# Summary of the method: as §1
# [17] = target: Gal6S(b1-4)Glc
# Summary of the method: as §1
# [18] = target: Gal6S(b1-4)Glc6S
# Summary of the method: as §1
# [19] = target: Gal6S(b1-4)GlcNAc
# Summary of the method: as §1
# [20] = target: Gal6S(b1-4)GlcNAc6S
# Summary of the method: as §1
# [21] = target: GalNAc(a1-3)Gal
# Summary of the method: as §1
# [22] = target: GalNAc(a1-3)GalNAc
# Summary of the method: as §1
# [23] = target: GalNAc(a1-3)GalNAc(b1-3)Gal(a1-4)Gal(b1-4)Glc
# Summary of the method: as §1
# [24] = target: GalNAc(a1-3)GalNAc(b1-3)Gal(a1-4)Gal(b1-4)GlcNAc
# Summary of the method: as §1
# [25] = target: GalNAc(b1-3)Gal
# Summary of the method: as §1
# [26] = target: GalNAc(b1-3)Gal(a1-4)Gal(b1-4)GlcNAc
# Summary of the method: as §1
# [27] = target: GalNAc(b1-3)Gal(a1-4)Gal(b1-4)GlcNAc(b1-3)Gal(b1-4)Glc
# Summary of the method: as §1
# [28] = target: GalNAc(b1-3)Gal(a1-6)Gal(b1-4)Glc
# Summary of the method: as §1
# [29] = target: GalNAc(b1-3)GalNAc
# Summary of the method: as §1
# [30] = target: GalNAc(b1-3)GlcNAc
# Summary of the method: as §1
# [31] = target: GalNAc(b1-4)Gal(b1-4)Glc
# Summary of the method: as §1
# [32] = target: GalNAc(b1-4)GlcNAc
# Summary of the method: as §1
# [33] = target: GalNAc(b1-4)GlcNAc(b1-2)Man
# Summary of the method: as §1
# [34] = target: GalNAc(b1-4)GlcNAc(b1-2)Man(a1-3)[GalNAc(b1-4)GlcNAc(b1-2)Man(a1-6)]Man(b1-4)GlcNAc(b1-4)GlcNAc
# Summary of the method: as §1
# [35] = target: GalNAc(b1-4)GlcNAc(b1-3)GalNAc(b1-4)GlcNAc
# Summary of the method: as §1
# [36] = target: GalNAc(b1-4)GlcNAc6S
# Summary of the method: as §1
# [37] = target: GalNAc(b1-6)GalNAc
# Summary of the method: as §1
# [38] = target: GalNAc3S(b1-4)GlcNAc
# Summary of the method: as §1
binder,measurement,setting,value
B1,glycan array binding signal (z-score),[1],-0.337
same,glycan array binding signal (z-score),[2],-0.273
same,glycan array binding signal (z-score),[3],-0.255
same,glycan array binding signal (z-score),[4],-0.3
same,glycan array binding signal (z-score),[5],0.607
same,glycan array binding signal (z-score),[6],-0.118
same,glycan array binding signal (z-score),[7],-0.321
same,glycan array binding signal (z-score),[8],0.164
same,glycan array binding signal (z-score),[9],-0.166
same,glycan array binding signal (z-score),[10],-0.166
same,glycan array binding signal (z-score),[11],0.642
same,glycan array binding signal (z-score),[12],-0.296
same,glycan array binding signal (z-score),[13],-0.26
same,glycan array binding signal (z-score),[14],-0.171
same,glycan array binding signal (z-score),[15],3.06
same,glycan array binding signal (z-score),[16],3.83
same,glycan array binding signal (z-score),[17],2.1
same,glycan array binding signal (z-score),[18],7.51
same,glycan array binding signal (z-score),[19],1.98
same,glycan array binding signal (z-score),[20],8.69
same,glycan array binding signal (z-score),[21],-0.327
same,glycan array binding signal (z-score),[22],-0.336
same,glycan array binding signal (z-score),[23],-0.26
same,glycan array binding signal (z-score),[24],-0.359
same,glycan array binding signal (z-score),[25],-0.291
same,glycan array binding signal (z-score),[26],-0.149
same,glycan array binding signal (z-score),[27],-0.261
same,glycan array binding signal (z-score),[28],-0.371
same,glycan array binding signal (z-score),[29],-0.362
same,glycan array binding signal (z-score),[30],-0.39
same,glycan array binding signal (z-score),[31],-0.008
same,glycan array binding signal (z-score),[32],-0.302
same,glycan array binding signal (z-score),[33],-0.42
same,glycan array binding signal (z-score),[34],-0.258
same,glycan array binding signal (z-score),[35],-0.349
same,glycan array binding signal (z-score),[36],-0.335
same,glycan array binding signal (z-score),[37],-0.347
same,glycan array binding signal (z-score),[38],-0.35
